Among all 420,000 compounds or so, about 50,000 (12%) were called active. Inconclusive means that the source gave no clear call. Such entries were picked first, then a sample of the others. Calls follow the shape of the dose curve; as a rule, active = well fitted inhibition curve with a large enough effect; inconclusive = small, poorly fitted or top-dose-only effect; inactive = flat fitted curve, though single readings scatter. Potencies of inconclusive entries are left out as doubtful fits.
Experiment: qHTS for Inhibitors of human tyrosyl-DNA phosphodiesterase 1 (TDP1): qHTS in cells in presence of CPT; also: nearly all actives have a fitted effect of over 55% in size
Details: chicken DT40 Tdp1-/-;hTDP1 cells + 20 nM CPT, ATP luminescence, 48 h; activity change, negative = growth inhibition: at 46.2 µM (top of the series) unless noted
Method in brief: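 Chicken DT40 Tdp1-/- cells stably complemented with human TDP1 were seeded at 400 cells/well in medium containing 20 nM camptothecin, exposed to pin-transferred compounds, and grown at 37 °C for at least 48 hr. Viability was read as ATP luminescence.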
% is scaled to controls: 0 for no effect and ±100 for the full control effect; potency is read from the fitted curve at half-maximal effect; tags tell the direction and shape of the fitted curve.

Compound | Potency | activity change, negative = growth inhibition
Cc1ccc(Cn2cc(CN3CC(N4CCN(Cc5ccccc5F)CC4)CS3(=O)=O)nn2)cc1 (centres undefined) | inconclusive [inhibitor, single point] | 
O=C(CCCn1c(=S)[nH]c2ccccc2c1=O)NCCSCc1ccccc1 | active: 23.1 µM | 
CC(C)NC(=O)CSc1nccc(-c2cccs2)n1 |  | inactive: -0.613%
OC(CSc1c(Cl)cccc1Cl)CN1CCN(c2ccccc2F)CC1 (centres undefined) | inconclusive [inhibitor, single point] | 
Cc1ccc(Oc2nc(-c3ccccn3)nc3ccccc23)cc1 | inconclusive [inhibitor, single point] | 
O=C(CS(=O)CC(=O)Nc1cccnc1)Nc1ccc(F)cc1 (centres undefined) |  | inactive: -3.42%
O=S(=O)(Nc1ccc(Cc2ccncc2)cc1)c1ccc(Cl)s1 |  | inactive: -4.66%
CN(C)CCNc1ncnc2c1ncn2[C@H]1CN(Cc2ccc(-c3ccccc3)cc2)C[C@@H](CO)O1 | active: 29.1 µM | 
Cc1ccc(C(=O)NCCc2csc(C)n2)cc1 | inconclusive [inhibitor, single point] | 
CCCSC1=C(C#N)C(c2cc(OC)ccc2OC)CC(=O)N1 (centres undefined) | inconclusive [inhibitor, full curve] | 
COc1cccc(NC(=O)N2CCCC2C(=O)NCc2ccccc2F)c1 (centres undefined) |  | inactive: 4.09%
CCc1cccc(NC(=O)CN2CCCN(Cc3cccc(C)c3)S2(=O)=O)c1 | inconclusive [inhibitor, partial curve] | 
COc1cccc(-c2ccc(NC(=O)C3CCCN(CCCn4nc(C)cc4C)C3)cc2)c1 (centres undefined) | active: 18.4 µM | 
CC(=O)N1C[C@@H](CO)[C@@H](N(C)C(=O)C2CCCCC2)C[C@H]1c1ccccc1 |  | inactive: 2.07%
CC1=C(C(=O)OCc2ccccc2)C(/C=C/c2ccccc2)N2C(=O)CCSC2=N1 (centres undefined) | inconclusive [inhibitor, single point] | 
CCc1noc(C)c1C(=O)OCC(=O)c1ccc(NC(=O)CC(C)C)cc1 | active: 20.6 µM | 
CC1CC(C)CN(c2oc(-c3ccco3)nc2C#N)C1 (centres undefined) | active: 18.4 µM | 
CC(C)CCN1CCC[C@]2(N[C@H](c3ccccc3)[C@@H]3C(=O)N(Cc4ccccc4)C(=O)[C@@H]32)C1=O |  | inactive: -29.8%
COc1ccc(N2CCN(C(c3ccccc3OC)c3nnnn3Cc3ccco3)CC2)cc1 (centres undefined) | inconclusive [inhibitor, single point] | 
O=C(NCc1cccc(C(F)(F)F)c1)C1C(=O)Nc2ccccc2C(=O)N1Cc1ccccc1 (centres undefined) |  | inconclusive: -31.1% [inhibitor]
CCOC(=O)/C(O)=C/c1ncc(C(F)(F)F)cc1Cl | active: 23.1 µM | 
CCC1(c2ccc(F)cc2)NC(=O)N(CC(=O)Nc2ccc(N3CCCCC3)cc2)C1=O (centres undefined) |  | inactive: -11.2%
COc1ccc(NC(=O)N2CCc3c([nH]c4ccc(OC)cc34)C2c2ccc(OC)cc2)cc1 (centres undefined) | inconclusive [inhibitor, single point] | 

Compound | Potency | activity change, negative = growth inhibition
COc1cc(/C=N/NC(=O)c2ccc(NC(=O)C3CCCCC3)cc2)ccc1O |  | inactive: 2.68%
CCN(CC)C(=O)C1CCCN(c2ncnc3onc(C)c23)C1 (centres undefined) | inconclusive [inhibitor, single point] | 
CCN(CC(=O)Nc1ccc2c(c1)OC(F)(F)O2)Cc1nc2ccccc2c(=O)[nH]1 | inconclusive [inhibitor, single point] | 
O=C(CSc1ncnc2c1cnn2-c1ccc(F)cc1)NC1CCCC1 | active: 18.4 µM | 
Cc1ccc(Cl)cc1N(C)C(=O)c1cnc(N2CCOCC2)c2ccccc12 | inconclusive [inhibitor, single point] | 
Cc1ccc(Cn2nnc3c(=O)[nH]c(C(=O)NCc4ccco4)nc32)cc1 | inconclusive [inhibitor, partial curve, poor fit] | 
COc1ccccc1-n1nnnc1SC(C)C(=O)NC1CCCC1 (centres undefined) |  | inactive: -2.08%
C/C(=N\NC(=O)COc1ccc(C)cc1C(C)C)c1ccc(-n2ccnc2)cc1 | inconclusive [inhibitor, single point] | 
Cc1cc(C(=O)CN2C(=O)C(=O)N(C3CCCC3)C2=O)c(C)n1-c1ccc(F)cc1 | inconclusive [inhibitor, single point] | 
COC(=O)c1sc(NC(=O)CN2CCN(c3cccc(Cl)c3)CC2)c(C(=O)OC)c1C | active: 29.1 µM | 
CC(C)N(Cc1nc(-c2ccc(Cl)cc2)no1)C(=O)CCCN1C(=O)c2ccccc2C1=O | inconclusive [inhibitor, single point] | 
O=C(Nc1cccnc1)Nc1ccccc1Cl | inconclusive [inhibitor, partial curve, poor fit] | 
c1cncc(CNc2ncnc3sc4c(c23)CCC4)c1 | inconclusive [inhibitor, single point] | 
COc1ccccc1Oc1ccc(N2CC(C(=O)OCC(=O)c3ccc(F)cc3)CC2=O)cc1 (centres undefined) |  | inactive: -3.16%
COc1ccc(CCN(Cc2cccs2)S(=O)(=O)c2ccc(-n3cnnn3)cc2)cc1OC | active: 11.6 µM | 
COc1cccc(CN(C)CC(=O)Nc2c(C)cccc2C(C)C)c1 | inconclusive [inhibitor, single point] | 
CCC(C(=O)Nc1ccc2c(c1)OCCO2)c1ccccc1 (centres undefined) |  | inactive: -5.39%
COc1cccc(/C=c2/s/c(=C(\C#N)C(=O)N3CCOCC3)n(-c3ccccc3)c2=O)c1 | inconclusive [inhibitor, single point] | 
CCCCn1c(N)c(N(CCOC)C(=O)CSc2nnc(C)n2-c2ccc(OC)cc2)c(=O)[nH]c1=O |  | inactive: -11.6%
Nc1c(Br)cc(Br)c2c1[nH]c(=O)c1ccccc12 | inconclusive [inhibitor, partial curve] | 
COc1ccc(-c2nn(-c3ccccc3)cc2/C=C2/SC(=S)N(CCCC(=O)O)C2=O)c(C)c1 | inconclusive [inhibitor, single point] | 
Cc1cc(NS(C)(=O)=O)c(=O)n(Cc2cccc(F)c2)c1 |  | inactive: 0.983%
Cc1ccc(S(=O)(=O)Nc2cccc(S(=O)(=O)N3CCCC3)c2)cc1C | inconclusive [inhibitor, single point] | 

Compound | Potency | activity change, negative = growth inhibition
COc1cccc(/C=C/c2ccc3cccc(O)c3n2)c1OC | inconclusive [inhibitor, single point] | 
CC(NC(=O)c1sc2ncccc2c1-n1cccc1)c1ccccc1 (centres undefined) | inconclusive [inhibitor, single point] | 
CCOC(=O)c1cnc(SC)nc1Oc1cccc(NS(=O)(=O)c2ccc(F)cc2)c1 | inconclusive [inhibitor, single point] | 
COc1ccccc1CC(=O)NC1CCCc2ccccc21 (centres undefined) | inconclusive [inhibitor, single point] | 
COc1ccccc1OCC(=O)Nc1cccc(-c2nnc(-c3ccco3)o2)c1 | inconclusive [inhibitor, single point] | 
CCCN1CNc2c(c(=O)[nH]c(=S)n2CCc2ccc(OC)cc2)C1 |  | inactive: 6.83%
COCCNC(=O)c1cn(C2CCN(C3CCCC3)CC2)nn1 |  | inactive: 0.408% [at 9.04 µM]
COc1ccc(NC(=O)c2ccc3[nH]c(C)c(C)c3c2)cc1 | inconclusive [inhibitor, single point] | 
Cc1ccc(Cn2c(C(C)Nc3nc(-c4ccc(Cl)c([N+](=O)[O-])c4)cs3)nc3cc(C(F)(F)F)ccc32)cc1 (centres undefined) | inconclusive [inhibitor, single point] | 
COc1ccc(C2c3[nH]c4ccccc4c3CCN2C(=O)c2cc3ncccn3n2)c(F)c1 (centres undefined) |  | inactive: -0.349%
S=C(Nc1cc(Cl)ccc1Oc1ccccc1)N1CCN(c2ccccn2)CC1 | inconclusive [inhibitor, single point] | 
O=C(NCC(c1cccnc1)N1CCN(Cc2ccccc2)CC1)C(=O)Nc1cccc(F)c1 (centres undefined) | active: 25.9 µM | 
CC(=O)Nc1cc[n+](C(C)C(=O)c2ccccc2)cc1 (centres undefined) | inconclusive [inhibitor, single point] | 
COC(=O)c1ccccc1NC(=O)C1CCN(S(=O)(=O)c2cc(C)ccc2OC)CC1 | inconclusive [inhibitor, single point] | 
C(=C1c2ccccc2-c2ccccc21)c1ccncc1 | inconclusive [inhibitor, single point] | 
CC1(C)Cc2c(sc3nc(N/N=C/c4ccccc4)[nH]c(=O)c23)CO1 | inconclusive [inhibitor, partial curve] | 
Clc1ccc(-n2cccc2CN2CCOc3ccc(CN4CCOCC4)cc3C2)nc1 | inconclusive [inhibitor, single point] | 
Cn1c(=O)c2c(-c3ccccc3)n(N3CCOCC3)cc2n(C)c1=O | inconclusive [inhibitor, single point] | 
O=c1c(Cl)c2oc3ccccc3nc-2c2ccccc12 | inconclusive [inhibitor, single point] | 
Nc1cc(-c2ccc(Br)cc2)nn1Cc1ccccc1 | inconclusive [inhibitor, single point] | 
c1ccc(Cc2nn3c(-c4ccncc4)nnc3s2)cc1 |  | inconclusive: -33.6% [inhibitor]
CC(C)C[C@H](NC(=O)OC(C)(C)C)C(=O)N[C@@H](CO)[C@H](O)[C@@H]1C[C@@H]1C(=O)N1CCCC1 |  | inactive: -5.39%
CCOC(=O)c1c(-c2ccccc2)csc1NC(=O)COc1ccc2c(C)cc(=O)oc2c1 | inconclusive [inhibitor, partial curve] | 

From PubChem BioAssay AID686979 (National Center for Advancing Translational Sciences (NCATS), 2013)
